According to a collection of fitness landscapes (doi:10.1016/j.celrep.2020.107928):
Whole data set: some 81,000 sequences, median “one-hybrid fitness for binding parS DNA” near -0.17, cut for the highest 2% near 0.51. Some of the results follow.

B1: Caulobacter ParB omega fusion; a variant is named by its letters at X, in order, B8GW30 (parent)
chain: MESVVVGEPGMSEGRRGLGRGLSALLGEVDAAPAQAPGEQLGGSREAPIEILQRNPDQPRRTFREEDLEDLSNSIREKGVLQPILVRPSPDTAGEYQIVAGERAWRAAQRAGLKTVPIMVRELDDLAVLEIGIIENVQRADLNVLEEALSYKVLMEKFERTQENIAQTIGKSXSHVANXMRLLXLPDEVQSYLVSGELTAXHARAIAAAADPVALAKQIIEGGLSVRETEALARKAPNLSAGKSKGGRPPRVKDTDTQALESDLSSVLGLDVSIDHRGSTGTLTITYATLEQLDDLCNRLTRGI

Variants of: B1
Experiment: one-hybrid fitness for binding parS DNA (scaled: cognate 1, non-cognate 0); higher = stronger binding
Conditions: with parS DNA site
Outline: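 The reporter was HIS3, with the binding site 19 bp from the promoter, in E. coli USO used for bacterial one-hybrid selection of Caulobacter ParB libraries with four specificity codons randomised. Growth was on M9 lacking histidine, with 0.1 mM IPTG and 5 mM 3-AT, for 48 hours at 37°C. Illumina sequencing covered plasmids before and after selection; three replicate libraries were pooled and variants with under 10 reads dropped. A fitness score is the log change in variant-to-wild-type read ratio, rescaled to the cognate and non-cognate references.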

Row | Variant | one-hybrid fitness for binding parS DNA
1 | DINY | ≤ 0.2
2 | VTMT | ≤ 0.2
3 | FLPS | ≤ 0.2
4 | QHER | ≤ 0.2
5 | MVCT | ≤ 0.2
6 | PTWF | ≤ 0.2
7 | TKSC | ≤ 0.2
8 | FSSF | ≤ 0.2
9 | QQLM | ≤ 0.2
10 | YKFC | ≤ 0.2
11 | LYGT | ≤ 0.2
12 | VMYC | ≤ 0.2
13 | EDMT | ≤ 0.2
14 | HKEV | ≤ 0.2
15 | KDHF | ≤ 0.2
16 | LNWT | ≤ 0.2
17 | EHND | ≤ 0.2
18 | RTHH | ≤ 0.2
19 | PQDM | ≤ 0.2
20 | YMTR | ≤ 0.2
21 | TARD | ≤ 0.2
22 | HGPG | ≤ 0.2
23 | VFPF | ≤ 0.2
24 | RDSA | ≤ 0.2
25 | AGLL | ≤ 0.2
26 | NAMC | ≤ 0.2

Row | Variant | one-hybrid fitness for binding parS DNA
27 | KHRQ | ≤ 0.2
28 | GSPM | ≤ 0.2
29 | CYNC | ≤ 0.2
30 | VWDS | ≤ 0.2
31 | PQIT | ≤ 0.2
32 | DVGL | ≤ 0.2
33 | DAQC | ≤ 0.2
34 | RPGW | ≤ 0.2
35 | QDFG | ≤ 0.2
36 | QCSL | ≤ 0.2
37 | TVCF | ≤ 0.2
38 | LEKR | ≤ 0.2
39 | RISL | ≤ 0.2
40 | ITAN | ≤ 0.2
41 | EKRR | ≤ 0.2
42 | KPFW | ≤ 0.2
43 | HPYQ | ≤ 0.2
44 | WSCD | ≤ 0.2
45 | NGRW | ≤ 0.2
46 | EKRG | ≤ 0.2
47 | CPKR | ≤ 0.2
48 | VNLI | ≤ 0.2
49 | WDGG | ≤ 0.2
50 | NEFG | ≤ 0.2
51 | MWPS | ≤ 0.2
52 | LSPI | ≤ 0.2

Row | Variant | one-hybrid fitness for binding parS DNA
53 | NPPV | ≤ 0.2
54 | YYSR | ≤ 0.2
55 | TYSR | ≤ 0.2
56 | HGCC | ≤ 0.2
57 | DQNS | ≤ 0.2
58 | WMGT | ≤ 0.2
59 | CYPS | ≤ 0.2
60 | LRMA | ≤ 0.2
61 | YHID | ≤ 0.2
62 | ILVS | ≤ 0.2
63 | RHWW | ≤ 0.2
64 | AAYK | ≤ 0.2
65 | HQKC | ≤ 0.2
66 | RKRF | ≤ 0.2
67 | YANV | ≤ 0.2
68 | SMIF | ≤ 0.2
69 | GDKF | ≤ 0.2
70 | LIAS | ≤ 0.2
71 | QQLI | ≤ 0.2
72 | LDTP | ≤ 0.2
73 | MLLH | ≤ 0.2
74 | MTDE | ≤ 0.2
75 | AVWT | ≤ 0.2
76 | AVNR | ≤ 0.2
77 | STYF | ≤ 0.2
78 | QPRY | ≤ 0.2

Row | Variant | one-hybrid fitness for binding parS DNA
79 | HSQV | ≤ 0.2
80 | SKRT | ≤ 0.2
81 | TPPF | ≤ 0.2
82 | PWDG | ≤ 0.2
83 | VWRT | ≤ 0.2
84 | DAET | ≤ 0.2
85 | QTYG | ≤ 0.2
86 | NAYG | ≤ 0.2
87 | IRCW | ≤ 0.2
88 | VRTD | ≤ 0.2
89 | SATV | ≤ 0.2
90 | RGPA | ≤ 0.2
91 | RQIP | ≤ 0.2
92 | SQVQ | ≤ 0.2
93 | QHKR | ≤ 0.2
94 | AADY | ≤ 0.2
95 | CSVI | ≤ 0.2
96 | SQQS | ≤ 0.2
97 | TPGV | ≤ 0.2
98 | NRER | ≤ 0.2
99 | RMMW | 0.215
100 | FPQC | ≤ 0.2
101 | NRVT | ≤ 0.2
102 | IANC | ≤ 0.2
103 | GHDG | ≤ 0.2
104 | TNSV | ≤ 0.2

Row | Variant | one-hybrid fitness for binding parS DNA
105 | SLPQ | ≤ 0.2
106 | NSMW | ≤ 0.2
107 | QEDT | ≤ 0.2
108 | IACT | ≤ 0.2
109 | GHPI | ≤ 0.2
110 | SPPL | ≤ 0.2
111 | CVKM | ≤ 0.2
112 | WRCR | ≤ 0.2
113 | FINR | ≤ 0.2
114 | LTER | ≤ 0.2
115 | TVNG | ≤ 0.2
116 | MRTY | ≤ 0.2
117 | VAHS | ≤ 0.2
118 | RNRP | ≤ 0.2
119 | WMNT | ≤ 0.2
120 | YTWS | ≤ 0.2
121 | WSNY | ≤ 0.2
122 | HWTK | ≤ 0.2
123 | RIWN | 0.455
124 | FNTD | ≤ 0.2
125 | MISR | ≤ 0.2
126 | DRCD | ≤ 0.2
127 | SITA | ≤ 0.2
128 | RVFW | ≤ 0.2
129 | AKQY | ≤ 0.2
130 | HEGL | ≤ 0.2

Row | Variant | one-hybrid fitness for binding parS DNA
131 | GQSN | ≤ 0.2
132 | GWPF | ≤ 0.2
133 | KHSY | ≤ 0.2
134 | RLTH | 0.232
135 | AFKR | 0.237
136 | SRMK | ≤ 0.2
137 | DILC | ≤ 0.2
138 | SISY | ≤ 0.2
139 | NTMI | ≤ 0.2
140 | RICD | ≤ 0.2
141 | YSEG | ≤ 0.2
142 | DSYS | ≤ 0.2
143 | QQGR | ≤ 0.2
144 | SDMD | ≤ 0.2
145 | HQSW | ≤ 0.2
146 | RSWH | ≤ 0.2
147 | LFIY | ≤ 0.2
148 | VHLN | ≤ 0.2
149 | MPRA | ≤ 0.2
150 | VSTA | ≤ 0.2
151 | TGRA | ≤ 0.2
152 | CRTQ | ≤ 0.2
153 | IITS | ≤ 0.2
